Tests used:
[1] = molecular target: T1, CXCR7 (HA tagged) overexpressed in HEK 293T cells (UniProt P56485 1-362); experiment: ELISA; saturation binding: lysates of HEK 293T cells overexpressing the receptor loaded onto high-affinity-binding ELISA plates coated with anti-HA antibody; serial dilutions of AP-conjugated ligand (or AP alone); AP activity read; Scatchard analysis; n=3; conditions: one partner purified
T1 construct: CXCR7 (C-X-C chemokine receptor type 7), HA tagged, overexpressed from an expression plasmid in HEK 293T cells; source: HEK 293T, transfected, in lysate

[2] = molecular target: T2, CXCR4 (HA tagged) overexpressed in HEK 293T cells (UniProt P70658 1-359); experiment: as above; conditions: one partner purified
T2 construct: CXCR4 (C-X-C chemokine receptor type 4), HA tagged, overexpressed in HEK 293T cells; source: HEK 293T, transfected, in lysate
T2 sequence (P70658 whole entry): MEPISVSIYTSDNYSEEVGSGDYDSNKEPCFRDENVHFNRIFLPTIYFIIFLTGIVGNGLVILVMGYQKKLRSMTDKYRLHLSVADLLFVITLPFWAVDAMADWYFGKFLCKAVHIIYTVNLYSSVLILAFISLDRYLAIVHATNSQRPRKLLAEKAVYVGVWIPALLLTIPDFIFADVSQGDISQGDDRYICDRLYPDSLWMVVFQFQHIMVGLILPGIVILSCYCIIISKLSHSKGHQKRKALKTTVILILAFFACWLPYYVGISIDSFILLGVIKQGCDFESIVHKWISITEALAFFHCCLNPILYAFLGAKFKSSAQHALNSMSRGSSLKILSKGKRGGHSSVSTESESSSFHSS

T1 sequence (P56485 whole entry): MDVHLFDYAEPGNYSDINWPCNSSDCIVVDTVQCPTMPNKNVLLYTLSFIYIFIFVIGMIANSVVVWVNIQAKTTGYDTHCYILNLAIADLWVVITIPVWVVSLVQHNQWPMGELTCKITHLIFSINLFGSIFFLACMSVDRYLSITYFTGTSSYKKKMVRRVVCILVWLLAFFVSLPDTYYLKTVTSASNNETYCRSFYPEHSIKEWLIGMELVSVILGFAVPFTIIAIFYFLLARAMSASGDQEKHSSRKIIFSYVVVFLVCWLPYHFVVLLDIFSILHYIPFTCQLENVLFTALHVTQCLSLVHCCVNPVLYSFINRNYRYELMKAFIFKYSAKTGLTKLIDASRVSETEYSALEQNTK

Kd [1]: 4.93 nM
Kd [2]: 10.1 nM
B1: Sdf-1α-AP (stromal cell-derived factor 1α conjugated with alkaline phosphatase) (ligand)
chain: not shown
notes: Sdf-1α (stromal cell-derived factor 1α) chemokine conjugated with alkaline phosphatase (AP)

From publication PMC6092110, “Binding of Dickkopf-3 to CXCR7 Enhances Vascular Progenitor Cell Migration and Degradable Graft Regeneration” (Circulation Research, 2018)
